Results published in PubChem BioAssay AID504832 (National Center for Advancing Translational Sciences (NCATS), 2011).
Hit rate of the full screen: of about 310,000 compounds, about 18,000 (5.8%) were called active. The inconclusive results got no clear call from the source; some entries with a clear call stand among them for comparison. Calls come from the whole dose curve; as a rule, active = well fitted inhibition curve with a large enough effect; inconclusive = small, poorly fitted or top-dose-only effect, or another doubt; inactive = no such curve, though single readings can be large or run the other way. Potencies of inconclusive entries are left out as doubtful fits.
% is set by controls: 0 for no effect and ±100 for the full control effect; potency is the fitted concentration of half-maximal effect; tags give direction and shape of the fitted curve.

Assay: Primary qHTS for delayed death inhibitors of the malarial parasite plastid, 48 hour incubation
Details: P. falciparum luciferase growth in erythrocytes; series mostly up to 28.7 µM; activity change, negative = inhibition: at the top concentration
How it was run: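 Growth was read as firefly luciferase luminescence after a 48 h, 37 C, 5% CO2 exposure of compounds to reporter-bearing P. falciparum cultures (0.1% parasitemia, 2% hematocrit final) in Albumax-supplemented RPMI 1640.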
For `COc1ccc(C(=O)NC2CCN(CC(=O)Nc3c(C)cccc3C)CC2)cc1OC`, the “activity change, negative = inhibition” value was inactive: -20.6%.
For `COc1ccc(C(=O)Nc2cc(C)on2)cc1S(=O)(=O)N1CC(c2ccccc2)CC1=O` (stereo not given), the Potency was inconclusive [inhibitor, single point].
For `O=C(CC(NS(=O)(=O)c1ccc(Cl)cc1)c1ccco1)NCc1ccco1` (stereo not given), the Potency was inconclusive [inhibitor, partial curve].
For `CCOC(=O)c1ccc2[nH]cc(C(C)=O)c(=O)c2c1`, the Potency was active: 4.65 µM.
With `OC(c1ccccn1)(c1ccccn1)c1ccccn1` the Potency was inconclusive [inhibitor, partial curve].
For `Cc1ccc(S(=O)(=O)N2CCOCC2)cc1NC(=O)COc1ncnc2ccccc12`, the Potency was inconclusive [inhibitor, partial curve, poor fit].
With `COc1ccc2[nH]c3c(c2c1)CCN1C(=O)N([C@@H](C)C(=O)NCc2ccccc2OC)C(=O)[C@]31C` the Potency was active: 4.15 µM.
In the case of `CCCN1Cc2cccc(C(=O)Nc3ccc(CN4CCCC4)cc3)c2C1=O`, the Potency is reported as active: 9.28 µM.
In the case of `Cc1ccc(S(=O)(=O)N(CC(=O)NCc2ccccc2Cl)C(=O)N2CCN(C)CC2)cc1`, the “activity change, negative = inhibition” value is reported as inactive: 21.6%.
For `NNc1nc(Nc2ccccc2)nc(N2CCCCC2)n1`, the Potency was inconclusive [inhibitor, single point].
For `COCCCN(C(=O)CCOc1ccc(C(C)(C)C)cc1)c1c(N)n(Cc2ccccc2)c(=O)[nH]c1=O`, the Potency was active: 13.1 µM.
In the case of `COc1ccc(-c2[nH]ncc2CN(C)C(C)c2ccon2)c(OC)c1` (stereo not given), the “activity change, negative = inhibition” value is reported as inactive: 0%.
With `COc1cccc(-c2c(C(=O)N/N=C(\C)c3ccco3)nnn2-c2nonc2N)c1` the Potency was inconclusive [inhibitor, single point].
In the case of `COc1ccc(C2C(C#N)=C(N)Oc3n[nH]c(-c4ccccn4)c32)c(OC)c1OC` (stereo not given), the Potency is reported as inconclusive [inhibitor, single point].
With `CCCCNC(=O)CCC(=O)Nc1ncc(-c2ccc(C)cc2)n1C` the “activity change, negative = inhibition” value was inactive: 34.3%.
For `CC1CCCCN1S(=O)(=O)c1ccc(C(=O)N(CCCN(C)C)c2nc3cc4c(cc3s2)OCO4)cc1` (stereo not given), the Potency was inconclusive [inhibitor, single point].
In the case of `O=C(Nc1cccc(NC(=O)c2cncc(Br)c2)c1)c1cncc(Br)c1`, the Potency is reported as active: 3.7 µM.
With `COC(=O)c1ccc(N2CCN(CCNC(=O)Nc3ccc(OC)cc3)CC2)cc1` the Potency was inconclusive [inhibitor, full curve].
In the case of `CC(NC(=S)NCCCN1CCOCC1)C1CC2CCC1C2` (stereo not given), the Potency is reported as inconclusive [inhibitor, single point].
With `O=C(CCC1CCCN(C(=O)Cn2cnnn2)C1)NCc1ccccc1F` (stereo not given) the “activity change, negative = inhibition” value was inactive: 57.9%.
With `CCN(C1=NS(=O)(=O)c2ccccc21)N(CC)S(=O)(=O)c1ccc(C)cc1` the Potency was inconclusive [inhibitor, single point].
For `O=C(COC(=O)c1ccccc1Br)Nc1cc(S(=O)(=O)N2CCOCC2)ccc1N1CCCC1`, the Potency was inconclusive [inhibitor, partial curve, poor fit].
For `CNC(=O)COC(=O)[C@@H](Nc1ccc(S(=O)(=O)N2CCOCC2)cc1[N+](=O)[O-])C(C)C`, the “activity change, negative = inhibition” value was inactive: -2.77%.
With `CC(C)COc1ccc(-c2nnc(-c3ccncc3)o2)cc1` the “activity change, negative = inhibition” value was inactive: 110%.
For `Cc1ccc(N)cc1NC(=O)CN1CCOCC1`, the “activity change, negative = inhibition” value was inactive: 10%.
For `COc1ccc2[nH]c(=O)c(CN(CC3CCCO3)C(=O)Nc3ccc(F)cc3)cc2c1` (stereo not given), the “activity change, negative = inhibition” value was inactive: 26.5%.
With `C=C(C)COc1ccc(-c2nc(N)ncc2Oc2ccc(OC)cc2)c(O)c1` the Potency was inconclusive [inhibitor, single point].
With `CCC1(c2ccc(F)cc2)NC(=O)N(CC(=O)N2CCN(S(=O)(=O)c3ccc(Cl)cc3)CC2)C1=O` (stereo not given) the Potency was inconclusive [inhibitor, single point].
For `CCCCOc1ccc(C(=O)Nc2ccc(CN3CCOCC3)cc2)cc1`, the Potency was inconclusive [inhibitor, partial curve, poor fit].
For `CCCCCCN(C(=O)CCCCCN1C(=O)NC(c2ccc([N+](=O)[O-])cc2)C(C(=O)OCc2ccccc2)=C1C)C(C(=O)NCCCC)c1ccc(OCC(=O)OC)c(C(=O)OC)c1` (stereo not given), the Potency was active: 1.85 µM.
With `COc1ccc(/C=C/c2c(-c3ccc(OC)cc3)oc3cccnc23)cc1` the Potency was inconclusive [inhibitor, single point].
For `Cc1c(C(=O)Nc2ccc3oc(-c4cccnc4)nc3c2)oc2ccccc12`, the Potency was inconclusive [inhibitor, single point].
For `CN(C)c1oc(/C=C/c2ccccc2)nc1C#N`, the “activity change, negative = inhibition” value was inactive: 106%.
With `COc1ccc(NC(=O)CN(C)C(=O)c2ccc(-c3ccccc3Cl)o2)cc1` the Potency was active: 0.37 µM.
For `Cc1ccc(S(=O)(=O)N2CCC(C(=O)NCCC3=CCCCC3)CC2)c(C)c1`, the Potency was inconclusive [inhibitor, partial curve, poor fit].
For `COc1cccc(C(C(=O)NCC2CCCO2)N(C(=O)Cn2nnc3ccccc32)c2ccc(NC(C)=O)cc2)c1OC` (stereo not given), the Potency was inconclusive [inhibitor, partial curve].
For `CC(C)CCN1CCN(Cc2cccn2-c2ccc(Cl)cn2)CC1CCO` (stereo not given), the Potency was active: 9.28 µM.
In the case of `COc1ccc(CCNC(=O)c2nnn(-c3ccccc3OC)c2N)cc1OC`, the “activity change, negative = inhibition” value is reported as inactive: 0.439%.
For `CCOC(=O)C1=C(COC(=O)CCc2ccccc2)NC(=O)NC1C` (stereo not given), the “activity change, negative = inhibition” value was inactive: -24.2%.
With `Oc1c(Cl)cc(Cl)cc1C=Nc1ccc(N2CCOCC2)cc1` the Potency was inconclusive [inhibitor, partial curve, poor fit].
With `COC(=O)CCC/C=C1\SC[C@@H](NC(=O)c2ccccc2)C1NC(C)=O` (stereo not given in full) the “activity change, negative = inhibition” value was inactive: -20.1%.
With `Cn1ccsc1=NC(=O)c1cc(S(=O)(=O)N2CCOCC2)ccc1F` the Potency was inconclusive [inhibitor, single point].
With `Cc1ccc2c(c1)nnn2C1CCN(CC(=O)N(c2ccccc2)c2ccccc2)CC1` the Potency was active: 6.57 µM.
For `CCOC(=O)N1CCN(C(=O)c2cc(COc3cccc(C(C)=O)c3)on2)CC1`, the “activity change, negative = inhibition” value was inactive: -9.5%.
With `CN(CC(=O)Nc1cccc(F)c1)C(=O)C1CCN(S(=O)(=O)c2ccc3c(c2)OCCO3)CC1` the Potency was active: 9.28 µM.
In the case of `COC(=O)c1ccccc1S(=O)(=O)C(C)(C)C`, the Potency is reported as inconclusive [inhibitor, single point].
In the case of `CCOc1ccccc1N(CC(=O)Nc1ccccc1)S(=O)(=O)c1ccccc1`, the Potency is reported as inconclusive [inhibitor, single point].
For `c1ccc(C(Cc2nc(-c3cccnc3)no2)c2ccccc2)cc1`, the Potency was inconclusive [inhibitor, single point].
In the case of `CC(C)(C)c1[nH]nc2c1C(Cc1ccccc1)C(C#N)=C(N)O2` (stereo not given), the Potency is reported as active: 10.4 µM.
In the case of `CC(C(=O)N1CCCCC1)N1CCN(S(=O)(=O)c2ccc(Cl)cc2)CC1` (stereo not given), the Potency is reported as inconclusive [inhibitor, single point].
For `COC(=O)c1c(NC(NC(=O)CC(C)C)C(Cl)(Cl)Cl)sc2c1CCC2` (stereo not given), the Potency was inconclusive [inhibitor, single point].
With `CCOC(=O)c1cc(-c2cccnc2)nn1-c1ccccc1C` the Potency was inconclusive [inhibitor, single point].
In the case of `CCCCCCN(C(=O)CCCCCN1C(=O)NC(c2ccc(-c3ccccc3)cc2)C(C(=O)OCc2ccccc2)=C1C)C(C(=O)NCCCC)c1ccc(OCC(=O)OC)cc1` (stereo not given), the Potency is reported as inconclusive [inhibitor, full curve].
In the case of `O=[N+]([O-])c1ccc(Cl)c(S(=O)(=O)NC2=NCCC2)c1`, the “activity change, negative = inhibition” value is reported as inactive: 64.7%.
For `CN1CCN(C(=O)c2ccc(CSc3ccc(Cl)cc3)cc2)CC1`, the “activity change, negative = inhibition” value was inactive: 8.88%.
In the case of `Cc1cc(C)n(CC2CC(=O)N(c3ccc(F)c(Cl)c3)C2=O)n1` (stereo not given), the Potency is reported as inconclusive [inhibitor, full curve, poor fit].
In the case of `COc1ccc(S(=O)(=O)N2CCN(CC(=O)Nc3cc(Cl)ccc3Cl)CC2)cc1`, the “activity change, negative = inhibition” value is reported as inactive: -9.09%.
In the case of `C=CCc1cc(Cl)ccc1OCCCNC(C)C`, the Potency is reported as inconclusive [inhibitor, single point].
In the case of `O=C(O)Cn1nc(-c2ccccc2)cc1-c1ccccc1`, the “activity change, negative = inhibition” value is reported as inactive: 12.7%.
In the case of `CC(=O)N(C)Cc1ccc(C(=O)CCl)cc1`, the “activity change, negative = inhibition” value is reported as inactive: 10.8%.
In the case of `COc1ccc(/C=C/C(=O)N2CCC(c3ccccc3)C2)cc1` (stereo not given), the “activity change, negative = inhibition” value is reported as inactive: 28.2%.
With `Brc1ccc2c(c1)[C@H]1OCC[C@H]1[C@@H](c1cccs1)N2` the Potency was inconclusive [inhibitor, single point].
With `CCC(=O)N1CCc2cc(Br)cc(S(=O)(=O)CCC(=O)N(C)c3cccc(C)c3)c21` the Potency was active: 11.7 µM.
With `Cn1nc(C(=O)Nc2cccc(S(=O)(=O)N3CCCC3)c2)c2ccccc2c1=O` the Potency was active: 8.28 µM.
With `COc1cc(C=O)c(-c2c(C=O)cc(OC)c3c2OCO3)c2c1OCO2` the “activity change, negative = inhibition” value was inactive: -7.83%.
In the case of `CC1CCCN(S(=O)(=O)c2ccc(NC(=O)Cn3nnc(-c4ccccc4F)n3)cc2)C1` (stereo not given), the Potency is reported as inconclusive [inhibitor, single point].
In the case of `O=C(NNc1cc(N2CCCC2)nc(N2CCCC2)n1)c1ccc([N+](=O)[O-])cc1`, the Potency is reported as inconclusive [inhibitor, partial curve, poor fit].
With `O=[N+]([O-])c1ccc(N2CCN(S(=O)(=O)c3ccc(Cl)cc3)CC2)cc1NCc1cccnc1` the Potency was active: 7.38 µM.
With `COc1ccc(OC)c(N(C(=O)c2ccco2)C(C(=O)NC2CCCC2)c2cc(OC)c(OC)c(OC)c2)c1` (stereo not given) the Potency was inconclusive [inhibitor, full curve, poor fit].
With `Cc1cc2cc(C(c3nnnn3C(C)(C)C)N(Cc3ccco3)CC3CCCO3)c(=O)[nH]c2cc1C` (stereo not given) the Potency was inconclusive [inhibitor, partial curve, poor fit].
